Reference: PubChem BioAssay AID1347073 (National Center for Advancing Translational Sciences (NCATS), 2019)
About 200 (0.44%) of roughly 45,000 compounds were called active. Inconclusive results (about 7%) are left out. The call rests on the fitted dose curve; in most records, active means well fitted activation curve with a large enough effect; inconclusive means small, poorly fitted or top-dose-only effect; inactive means no such curve, though single readings can be large or run the other way. This is one part of the list.

Assay: qHTS of TDP-43 Inhibitors: NCGC Sytravon Library Screen; further: nearly all actives have a fitted effect of over 55% in size; on growth rescue (activation): 0% is about no effect
Conditions: yeast TDP-43 toxicity rescue, BacTiter-Glo growth, 24 h; series mostly up to 46.1 µM; growth rescue (activation): at the top concentration
In short: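 TDP-43-expressing yeast, pregrown in raffinose, seeded at OD600 0.02 in galactose medium with compound for 24 hr at 30 deg C. Growth read by BacTiter-Glo luminescence, so rescue of toxicity appears as activation.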
Potency means the concentration at half of the fitted maximal effect.

Compound	growth rescue (activation)	Potency
CC(=O)Nc1ccc2c(c1)C(=O)N(c1cccc(C)c1)C2=O	inactive: 29.9%	–
COc1ccc(NC(=O)CN2C(=O)NC3(CCCC3)C2=O)cc1Cl	inactive: 7.7%	–
Cc1cc2c(cc(C(=O)OC(C)C(=O)NCc3ccccc3)n2C)o1 (configuration not stated)	inactive: 5.91%	–
C=CCc1cccc(CNc2c(C)cc(C)cc2C)c1O	inactive: 1.53%	–
O=C(/C=C/c1ccccc1)OCc1cncs1	inactive: 8.67%	–
Cc1ccc2c(=O)cc(C(=O)NCCc3ccc(S(N)(=O)=O)cc3)oc2c1C	inactive: 4.9%	–
COc1ccc(C(C)(C)C)cc1NC(=O)c1ccc2c(c1)SC1=NS(=O)(=O)CCN12	inactive: 1.28%	–
C=CCNc1scc(-c2ccccc2)[n+]1CC=C	inactive: 8.08%	–
COc1ccc(OC)c(C2=Nn3c(nnc3-c3ccncc3)SC2)c1	inactive: 25.8%	–
CCOc1ccc(OCC(O)CN2CCN(S(=O)(=O)c3cccc(C(F)(F)F)c3)CC2)cc1 (configuration not stated)	inactive: 1.72%	–
CCC1CCC(C(=O)NC(CCSC)C(=O)NCCN(CC(C)C)CC(C)C)CC1 (configuration not stated)	inactive: -6.31%	–
Cc1nonc1NC(=O)CSc1ccccn1	inactive: -3.3%	–
O=C(NC1CCCC1)C(c1ccncc1)N(C(=O)c1csnn1)c1cccc(Cl)c1 (configuration not stated)	inactive: 7.01%	–
CCN(CC)S(=O)(=O)c1ccc(N2CCCCC2)c(NC(=O)/C=C/c2ccc(OC)c(OC)c2)c1	inactive: 28.6%	–
CNC(=S)Nc1ccc([N+](=O)[O-])cc1C	inactive: 3.18%	–
Cc1cc(NS(=O)(=O)c2ccc(NC(=O)CCc3ccccc3)cc2)no1	inactive: -1.21%	–
Cc1ccc2c(C(=O)CSc3ccccc3)c(C)[nH]c2c1	inactive: 14.7%	–
Cc1cccc(-c2nnc(SCC(=O)NC3CCCC3)o2)c1	inactive: 4.04%	–
Cc1ccc(/C=C(\NC(=O)c2ccccc2)C(=O)NC(Cc2ccccc2)C(=O)O)cc1 (configuration not stated)	inactive: -5.54%	–
Cc1nc2c(-c3ccc(Cl)cc3)c(C)[nH]n2c(=O)c1Cc1ccccc1	inactive: 11.4%	–
Nc1ccc(C(=O)CC(=O)Nc2ccc(Cl)cc2)cc1	inactive: 25.5%	–
Cc1ccc(CS(=O)(=O)c2ncn[nH]2)cc1	inactive: -1.93%	–
COc1ccc(NS(=O)(=O)c2cccc(NC(=O)c3cnccn3)c2)cc1Br	inactive: -0.396%	–

Compound	growth rescue (activation)	Potency
CCCCOc1ccc(C(=O)OCC(=O)N2CCOCC2)cc1	inactive: -21.3%	–
C=CCNc1nc(N)c([N+](=O)[O-])c(NCc2ccccc2)n1	inactive: 20.9%	–
O=C(O)/C=C/c1cccc(OCc2ccccc2)c1	inactive: -6.42%	–
COc1ccc(Br)cc1/C=N/NC(=O)c1cccc(S(=O)(=O)N2CCOCC2)c1	inactive: 0.922%	–
CCN(CC)c1ccc(/C=N/NC(=O)c2ccoc2C)cc1	inactive: 11.7%	–
O=C(O)C1C(C(=O)O)C1(c1ccccc1)c1ccccc1 (configuration not stated)	inactive: 14.3%	–
CN(C(=O)COC(=O)c1ccc2ccccc2n1)c1ccccc1	inactive: -5.71%	–
CC1CC(C)CN(C(C)C(=O)Nc2cc(S(=O)(=O)N3CCCCC3)ccc2Cl)C1 (configuration not stated)	inactive: -17.5%	–
Cn1c(SCC(=O)N2c3ccccc3CCc3ccccc32)nnc1-c1cc2ccccc2cc1O	inactive: -11.2%	–
N#Cc1c(NC(=O)c2cccc(S(=O)(=O)Nc3ccc(C(=O)O)cc3)c2)sc2c1CCCC2	inactive: 6.91%	–
COc1ccccc1NS(=O)(=O)c1cc(NC(=O)c2cc(F)c(F)c(F)c2F)ccc1N1CCOCC1	inactive: 3.69%	–
O=C(c1cncc(Br)c1)N1CCN(c2ccc([N+](=O)[O-])cc2)CC1	inactive: 3.44%	–
Cc1ccc(OCC(=O)N(C)Cc2ccccc2)c([N+](=O)[O-])n1	inactive: 9.8%	–
CCOC(=O)C(C(=O)Nc1nccs1)C1CCCCC1 (configuration not stated)	inactive: -4.86%	–
CCOC(=O)C1CCCN(C(=O)c2ccc3c(c2)N(Cc2ccccc2)C(=O)c2ccccc2S3(=O)=O)C1 (configuration not stated)	inactive: 25.5%	–
COc1ccc(C2CC(c3cccs3)=NN2C(=O)c2ccc(Br)o2)cc1 (configuration not stated)	inactive: 24.1%	–
O=C(CSc1ccccn1)Nc1nc2c(ccc3ccccc32)s1	inactive: 23.5%	–
NC(=S)N/N=C/c1ccc(C23CC4CC(CC(C4)C2)C3)cc1	–	active: 7.94 µM
O=C(Cn1cnc2c(cnn2-c2ccccc2)c1=O)Nc1cc(S(=O)(=O)N2CCOCC2)ccc1Cl	inactive: -13.6%	–
Cc1ccccc1NC(=O)c1ccc(CN2CCC(Cc3ccccc3)CC2)cc1	inactive: -12.2%	–
CC(C)Cn1c(N)c(C(=O)COC(=O)C2CC(=O)N(Cc3ccccc3Cl)C2)c(=O)n(C)c1=O (configuration not stated)	inactive: 7.06%	–
Cc1ccccc1NC(=O)NC1(C(=O)N2CCC(O)CC2)CCCCC1	inactive: 3.83%	–
COc1ccc(Nc2nc(N(C)c3ccccc3)nc(N)c2[N+](=O)[O-])cc1	inactive: 14.6%	–

Compound	growth rescue (activation)	Potency
Cc1cc(=O)[nH]c(CN2CCOCC2)n1	inactive: -25.9%	–
CSc1ccc(S(=O)(=O)N2CCC(C(=O)NCCN3CCOCC3)CC2)cc1	inactive: 13.8%	–
CC(=O)Nc1sc(/C(C#N)=C\c2cccc(Cl)c2)nc1-c1ccc(C)cc1	inactive: -7.82%	–
C/C(=N\NC(=O)c1cccc([N+](=O)[O-])c1)c1cccs1	inactive: 26.6%	–
Cc1ccc(C(=O)n2c(N)nc3ccccc32)cc1	inactive: -4.96%	–
Cc1nn(C)cc1CNC(=O)c1cccc(F)c1	inactive: -0.408%	–
COc1nc(Nc2cccc([N+](=O)[O-])c2)nc(OC)n1	inactive: 0.336%	–
O=C(Nc1nccs1)c1cc(-c2ccco2)nc2ccccc12	inactive: 16.1%	–
CCOc1ccccc1NCc1cc(=O)oc2cc(C)ccc12	inactive: -11.2%	–
COc1ccc2[nH]c3c(=O)n(Cc4ccc(C(=O)N5CCCCCC5)cc4)c(=S)[nH]c3c2c1	inactive: -0.164%	–
Cc1ccc(-n2c(=O)[nH]c3c(C(N)=O)nc(C(C)C)nc32)cc1	inactive: -8.87%	–
O=C(NC(=S)N1CCN(Cc2ccc3c(c2)OCO3)CC1)c1ccc(Cl)cc1	inactive: 7.46%	–
O=C(CNc1ccc(F)cc1F)NC(=O)NCc1ccco1	inactive: -2.61%	–
COC(=O)c1ccc(NC(=O)Cn2cnc3c2c(=O)n(C)c(=O)n3C)cc1	inactive: 4.35%	–
CN(c1ccc(OCC(=O)OCC(=O)NC2CCCC2)cc1)S(=O)(=O)c1ccc2ccccc2c1	inactive: -12.2%	–
NS(=O)(=O)c1ccc(NC(=O)COC(=O)Cc2c[nH]c3ccccc23)cc1	inactive: 5.51%	–
CC1(C)Cc2c(cnn2-c2cccc(F)c2)C(NC(=O)c2ccc[n+]([O-])c2)C1 (configuration not stated)	inactive: 5.74%	–
COc1ccccc1NS(=O)(=O)c1cc(NC(=O)c2ccc3c(c2)OCCO3)ccc1C	inactive: -9.07%	–
CCOc1cc(CNCCO)cc(Br)c1OCc1ccccc1	inactive: -14.1%	–
CC1CCN(C(=O)COC(=O)CNC(=O)c2ccccc2F)CC1	inactive: -6.16%	–
Cc1ccc(Cl)cc1N1CCN(S(=O)(=O)c2c(C)nc3scc(C)n3c2=O)CC1	inactive: 17%	–
